From paper PMC9574860, “Chemical Toolkit for PARK7: Potent, Selective, and High-Throughput” (Journal of Medicinal Chemistry, 2022)
The whole screen tested about 7,900 compounds, of which about 400 (5.1%) showed an effect of 50% or more. The list shows a part of the results.

Target: Parkinson's disease protein 7 (PARK7/DJ1) (human, UniProt Q99497)
Test: primary screen, percent inhibition; read as competition with a fluorescent probe by fluorescence polarization; higher = more effect of the substance
Conditions: 100 µM
Protocol: The screen was conducted using the conditions as described above in 1536-well plates (Corning 3724) with a reaction volume of 8 μL per well. The compound library containing 7887 covalent fragments was purchased at Enamine Ltd. and received as 100 mM DMSO stocks in 384 well LDV Echo plates (Labcyte LP-0200). Stock solutions of 0.26 μM PARK7 and 80 nM JYQ-107 were prepared. Using a Labcyte Echo550 acoustic dispenser, 8 nL of the DMSO stock solution of the library compounds was transferred from the source plates into the empty 1536-well screening plates to obtain a 100 μM final compound concentration. Next, PARK7 (6 μL, final concentration 0.2 μM) was dispensed using a Biotek MultiflowFX liquid dispenser and incubated for 2 h, followed by dispensing the probe JYQ-107 (2 μL, final concentration 20 nM). After 2 h incubation, the FP signal was recorded on a BMG Labtech PHERAstar plate reader (λex/em 480/520 nm). The relative loss of FP signal compared with reference controls was used to calculate the remaining enzyme activity.

Sequence of Parkinson's disease protein 7 (PARK7/DJ1) (Q99497 whole entry, looked up): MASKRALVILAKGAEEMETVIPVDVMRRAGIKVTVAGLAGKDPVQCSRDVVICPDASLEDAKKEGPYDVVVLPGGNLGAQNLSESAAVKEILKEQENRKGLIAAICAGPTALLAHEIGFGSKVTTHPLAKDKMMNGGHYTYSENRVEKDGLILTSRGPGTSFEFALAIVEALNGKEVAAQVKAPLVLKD

Row | SMILES | Inhibition % [%]
1 | COc1ccc(N2CCN(C(=O)n3ccnc3)CC2)cc1 | 1.24
2 | O=S(=O)(C=Cc1ccccc1)NCC(F)(F)F | 10.1
3 | Cc1n[nH]c2ccc(B3OC(C)(C)C(C)(C)O3)cc12.Cl | 7.34
4 | COc1ccccc1C=CC(=O)N1CC(C)C(O)C1 (stereo not shown) | 7.9
5 | CC1CCCCN1C(=O)C=Cc1cn(C)c(=O)n(C)c1=O (stereo not shown) | 6.42
6 | Cc1nn(C)c(Cl)c1C=CC(=O)N1CCC(N)C1.Cl (stereo not shown) | 17.1
7 | Cc1csc(N2CCN(C3CC(C)OC3=O)CC2)n1 (stereo not shown) | 9.28
8 | N#CCc1ccc(OCC2CO2)cc1 (stereo not shown) | 8.66
9 | CC(C)n1ccnc1C(=O)CCl | 48.7
10 | N#Cc1nccnc1N1CCC(=Cc2ccccc2)CC1 | 12.8
11 | C=CCN(Cc1cccs1)C(=O)CCl | 12.2
12 | O=C(CCl)Nc1nnc(-c2ccccc2)o1 | 8.76
13 | Cc1cc(Cl)c(B2OC(C)(C)C(C)(C)O2)cc1C | 17.7
14 | CC1CC(N2CCOC(c3nccs3)C2)C(=O)O1 (stereo not shown) | 7.23
15 | N#Cc1nccn1CC1CCC(F)(F)CC1 | 13.8
16 | CCCOc1ccc(Cl)cc1S(=O)(=O)n1cccn1 | 5.91
17 | Cn1c(=O)c2c(ncn2CCS(=O)(=O)F)n(C)c1=O | 7.95
18 | c1cc2c(cc1C1CO1)OCCO2 (stereo not shown) | 5.75
19 | CC1(C)OB(c2cc(Cn3cccn3)ccc2F)OC1(C)C | 5.6
20 | C=CC(=O)N1CCOCC1c1noc(C)n1 (stereo not shown) | 7.75
21 | O=C1NC(c2ccc(F)cc2)C12CCC2 (stereo not shown) | 6.95
22 | C=CC(=O)N1CCOC(c2ccsc2)C1 (stereo not shown) | 12.2
23 | Cc1ccc(Cl)c(NC(=O)CCl)c1Cl | 4.19
24 | COCc1cccnc1C#N | 2.34
25 | C=CC(=O)N1CCC2(CCSCC2)CC1 | 5.26
26 | CNCc1n[nH]c(=O)o1.Cl | 8.56

Row | SMILES | Inhibition % [%]
27 | COc1cccc(OC(=O)N2CCOCC2)c1 | 9.05
28 | C=CC(=O)N1CC2COCC(C1)O2 | 8.25
29 | N#CC(=Cc1cccs1)C(=O)Nc1nccs1 | 8.67
30 | COc1ccnc(NC(=O)c2cccnc2S)c1 | 12.9
31 | Cc1cc(C)cc(N(CCC#N)C(=O)CCl)c1 | 9.52
32 | Cc1ccccc1-c1noc(=O)n1CC(=O)N1CCCC1 | 2.07
33 | COC(=O)C1CC(S(=O)(=O)F)CN1C(=O)C1CC1C (stereo not shown) | 13.7
34 | C=CC(=O)Nc1cc2c(cc1Cl)OCCO2 | 4.65
35 | COCCCS(=O)(=O)N1CCC(Cl)CC1 | 7.37
36 | CCC1(CNS(=O)(=O)C=Cc2ccccc2)CCOCC1 | 6.07
37 | O=C(NCC1(CCO)CCOC1)c1cccnc1S (stereo not shown) | 0.877
38 | O=C(CCl)NC(=O)Nc1ccc2c(c1)OCCO2 | 7.05
39 | C=CC(=O)NCC1CCN(c2ccncc2)CC1 | 15.3
40 | Cc1cccc(OC(=O)N2CCOCC2)c1 | 13.3
41 | C=CC(=O)N1CCCC(NC(C)=O)C1 (stereo not shown) | 8.6
42 | C=CC(=O)N1CC=C(c2ccc(OC)cc2)C1 | 1.78
43 | C=CC(=O)NC1CCc2nc(C)nn2C1 (stereo not shown) | 12.2
44 | ClCCOc1ccccc1 | 4.27
45 | CC1(C)OB(c2cnc3occc3c2)OC1(C)C | 5.49
46 | COc1ccccc1NC(=O)C(C#N)=Cc1ccco1 | 3.38
47 | ClCCCc1cccnc1 | 7.37
48 | Cc1cnc(=S)[nH]c1 | 8.44
49 | O=C1CN=C(S)N1CC1CCCO1 (stereo not shown) | 4.73
50 | CN1CC(=O)N(CCCl)C1=O | 7.13
51 | CNC(=O)C(C#N)=Cc1cc(C)n(CCC(C)C)c1C | 0.301
52 | CN(Cc1ccccc1OC(F)(F)F)C(=O)n1ccnc1 | 4.13

Row | SMILES | Inhibition % [%]
53 | C=CC(=O)N1CCC(S(=O)(=O)NC(C)C)C1 (stereo not shown) | 7.14
54 | Cc1ccc(-n2nc(C)cc2NC(=O)CCl)cc1.Cl | 26.9
55 | SCCc1c[nH]c2ccccc12 | 20.7
56 | OB(O)c1ccc(Cn2cccn2)c(F)c1 | -0.275
57 | C=CC(=O)NC1CCOCC1C (stereo not shown) | -3.2
58 | Sc1nc2ccccc2nc1S | 8.25
59 | COc1ncc(B2OC(C)(C)C(C)(C)O2)cn1 | 4.41
60 | Cc1ccc(C)c(OCCCn2cnc(C#N)n2)c1 | 2.57
61 | CC1(C)OB(c2ccc(N)nc2)OC1(C)C | 9.29
62 | C=CC(=O)NC1(c2ccc(F)cn2)CC1 | 8.51
63 | O=C(CCl)C1CCC(F)(F)CC1 | 96.8
64 | C=CC(=O)Nc1ccc2c(n1)OCCO2 | 1.66
65 | C1COC2(CCC3(CC2)CO3)O1 | 4.9
66 | Cc1nnc(SC2CC(C)OC2=O)n1-c1ccccc1 (stereo not shown) | 6.93
67 | O=C(Nc1ccccc1)N1CCC(C2OCCO2)CC1 | 11.2
68 | C=CC(=O)N1CCN(S(=O)(=O)c2nnc[nH]2)CC1 | 4.36
69 | Cn1cc(C=C2N=C(c3ccccc3)OC2=O)cn1 | 3.97
70 | O=C(CCl)NC(=O)c1cccs1 | 23.4
71 | Cc1cccc2c(C#N)nccc12 | -0.133
72 | O=C(CCl)NCc1cccc(NC(=O)C2CC2)c1 | 11.4
73 | O=C(CCl)N1CCN(C(=O)c2cccs2)CC1 | 40.3
74 | O=C1OCCC1Sc1nc2ccccc2s1 (stereo not shown) | 13.4
75 | CN(C#N)Cc1ccccc1 | 62.8
76 | COc1cccc(CNC(=O)n2ccnc2)c1 | 95.1
77 | COc1cc(S(=O)(=O)n2cccn2)c(C)cc1C | 5.05
78 | CCOc1ccc(C(C)C)cc1S(=O)(=O)n1cnc(C)c1 | 6.97

Row | SMILES | Inhibition % [%]
79 | C=CC(=O)Nc1cccc(C#N)c1 | 4.68
80 | C=CC(=O)NCc1cccc(OC(C)(C)C)n1 | 4.11
81 | Cc1ccc(SC2CCOC2=O)cc1 (stereo not shown) | 0.89
82 | CC1(C)OB(c2ccc(S(N)(=O)=O)cc2)OC1(C)C | 26.8
83 | CC1CN(c2ccc(C#N)nc2)CC(c2ccsc2)O1 (stereo not shown) | 10.3
84 | C=CC(=O)N1CC23CCCCC2(COC3)C1 (stereo not shown) | 8.4
85 | CN(Cc1cc(Br)cs1)C(=O)CCl | 42.9
86 | Cl.O=C(CCl)N1CCN(Cc2cccs2)CC1 | 3.64
87 | O=C(O)[C@H]1CCCN(C(=O)C=CC2CC2)C1 | 9.02
88 | OB(O)c1ccc(-c2ccccc2F)cc1 | 0.486
89 | C=CC(=O)NC1CCN(C(=O)NC2CCCCC2)CC1 | 10.5
90 | Clc1ccc(OCC2CO2)c(Cl)c1 (stereo not shown) | 4.9
91 | N#CN(Cc1ccno1)c1ccc(F)cc1 | 15.5
92 | C=CC(=O)N1CCCCC1 | 3.77
93 | C=CC(=O)N1CCC(C)C(OC)C1 (stereo not shown) | 7.85
94 | CS(=O)(=O)OCC1(C#N)CCCC1 | 11.5
95 | CC1(C)CN(c2nccnc2C#N)C1(C)C | 0.332
96 | N#Cc1cccc(NCCCC2CCCCO2)n1 (stereo not shown) | 8.44
97 | Cl.O=C(CCl)N1CCN(Cc2ccc3c(c2)CCO3)CC1 | 2.96
98 | COc1ccc(C(C)=CB2OC(C)(C)C(C)(C)O2)cc1 | 5.19
99 | C=CC(=O)N(C)C1CCS(=O)(=O)CC1 | 10.1
100 | CC1(C)OB(c2ccc(C(F)(F)F)nc2)OC1(C)C | 1.49
101 | CNC(=O)c1cncc(C=CC(=O)N2CCCC(N)C2)c1.Cl (stereo not shown) | 9.43
102 | Sc1ncccc1Cl | 2.79
103 | COC1(C)CCCN(c2ccc(C#N)nc2)C1 (stereo not shown) | 13.8
104 | Cn1nc(C(F)(F)F)cc1B1OC(C)(C)C(C)(C)O1 | 0.786

Row | SMILES | Inhibition % [%]
105 | Cc1ccc(CNC(=O)CCl)cc1 | 1
106 | COc1ccc(S(=O)(=O)n2ccc(C)n2)c(C)c1C | 6.27
107 | C#CC(=O)c1ccc(C(F)(F)F)cc1 | 0.878
108 | Cc1ccc(-c2nc(C#N)c(NC3CC3)o2)cc1 | 5.44
109 | C=CC(=O)N1CCCC(CNC(=O)c2ccccc2)C1 (stereo not shown) | 9.05
110 | CN(C)C(=O)Sc1ccc(CO)cc1 | 5.66
111 | O=S(=O)(C=Cc1ccccc1Cl)Nc1cccnc1 | 9.53
112 | CN(c1ccccc1)S(=O)(=O)c1ccccc1S(=O)(=O)F | 96.6
113 | CCNC(=O)C12CC3CC(CC(Cl)(C3)C1)C2 | 7.43
114 | C=CC(=O)NC1CC12CCCc1ccccc12 (stereo not shown) | -3.23
115 | C=CC(=O)N1CCC(c2nc(C)c(C)s2)CC1 | 4.4
116 | C=CC(=O)N1CCc2ccccc2C1CC (stereo not shown) | -1.28
117 | C=CC(=O)N(C)CCN1CCCS1(=O)=O | 12.4
118 | O=C(CCl)N(Cc1cccs1)C1CCS(=O)(=O)C1 (stereo not shown) | 5.82
119 | CC1CC(N(C)Cc2nc3c(s2)CCCC3)C(=O)O1 (stereo not shown) | 8.2
120 | CC1Cc2cc(C(=O)CCl)ccc2N1S(C)(=O)=O (stereo not shown) | 6.9
121 | O=C(C=Cc1ccc2ccccc2n1)N1CCCC1CO (stereo not shown) | 7.06
122 | CC(NC(=O)c1ccccc1NC(=O)CCl)c1ccccc1 (stereo not shown) | 6.77
123 | Cc1cc(NC(=O)CCl)no1 | 3.42
124 | CCOCCCn1c(S)nc2c(C)cccc2c1=O | 5.79
125 | C=CC(=O)N[C@H](C(=O)N1CCCC1)C(C)C | -4.2
126 | C=CC(=O)N1CCC(c2ccco2)CC1 | 8.73
127 | C=CC(=O)Nc1cc(C)on1 | 10.6
